Publication PMC4336329 (PLoS ONE, 2015)
The campaign covered roughly 310,000 compounds. About 14,000 (4.5%) showed an effect of 50% or more. Effects have a minus sign here. The list shows a part of the results.

Target: human ether-à-go-go-related gene (hERG) potassium channel (human, UniProt Q12809)
Assay: primary screen, population patch clamp on CHO cells stably expressing hERG
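Note: peak tail current of the secondary pulse compared with the same well before compound.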

human ether-à-go-go-related gene (hERG) potassium channel, sequence (Q12809 whole entry, looked up): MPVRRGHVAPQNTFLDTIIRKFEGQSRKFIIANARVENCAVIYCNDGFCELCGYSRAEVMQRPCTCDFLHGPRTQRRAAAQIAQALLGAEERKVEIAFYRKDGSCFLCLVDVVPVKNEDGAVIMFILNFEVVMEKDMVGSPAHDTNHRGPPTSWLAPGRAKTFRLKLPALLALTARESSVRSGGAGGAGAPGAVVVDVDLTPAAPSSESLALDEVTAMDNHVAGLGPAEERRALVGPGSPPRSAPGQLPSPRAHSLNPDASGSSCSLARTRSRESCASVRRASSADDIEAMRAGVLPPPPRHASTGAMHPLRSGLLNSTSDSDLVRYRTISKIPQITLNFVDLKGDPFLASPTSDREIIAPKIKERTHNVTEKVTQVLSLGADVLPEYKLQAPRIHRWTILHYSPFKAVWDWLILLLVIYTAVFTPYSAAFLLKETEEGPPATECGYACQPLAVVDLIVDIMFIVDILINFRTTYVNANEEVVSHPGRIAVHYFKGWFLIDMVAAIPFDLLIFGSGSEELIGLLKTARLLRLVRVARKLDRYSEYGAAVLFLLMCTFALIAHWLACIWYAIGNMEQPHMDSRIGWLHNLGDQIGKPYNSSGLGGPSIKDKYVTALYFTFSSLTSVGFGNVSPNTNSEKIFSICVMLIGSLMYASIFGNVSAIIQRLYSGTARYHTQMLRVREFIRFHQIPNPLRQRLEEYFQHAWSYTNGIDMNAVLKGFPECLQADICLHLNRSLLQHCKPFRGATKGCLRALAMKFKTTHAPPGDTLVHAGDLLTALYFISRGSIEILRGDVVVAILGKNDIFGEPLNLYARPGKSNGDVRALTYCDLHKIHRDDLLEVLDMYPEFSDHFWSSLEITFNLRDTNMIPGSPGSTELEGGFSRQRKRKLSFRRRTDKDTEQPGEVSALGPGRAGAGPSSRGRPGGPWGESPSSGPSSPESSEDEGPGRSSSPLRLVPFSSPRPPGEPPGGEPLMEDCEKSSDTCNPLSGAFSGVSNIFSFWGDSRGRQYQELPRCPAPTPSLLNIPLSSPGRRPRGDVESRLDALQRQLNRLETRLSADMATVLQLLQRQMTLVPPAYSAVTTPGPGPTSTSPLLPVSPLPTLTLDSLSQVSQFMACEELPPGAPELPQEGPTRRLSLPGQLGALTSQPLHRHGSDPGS

SMILES	hERG current change (%, negative = inhibition) at 10uM [%]
CNC(=O)Nc1cc(C(C)(C)C)no1	8.95
Cn1c(=NC(=O)CSCC(=O)N2CCCC2)sc2ccccc21	-5.34
COc1cc(OC)cc(C(=O)NNC(=O)C(=O)Nc2cc(OC)c(Cl)cc2OC)c1	16.8
CCNCC(=O)Nc1ccc(N2CCOCC2)cc1	25.9
CC(=O)N1CCc2cc(C(=O)CN3CCN(c4ccccn4)CC3)ccc21	-2.87
Cc1ccc2nc3c(cc2c1)c(NC(=O)c1cccnc1)nn3C	-1.27
Cc1ccc(C2(C)NC(=O)N(CC(=O)Nc3ccc(-c4nc5ccc(C)cc5s4)cc3)C2=O)cc1 (centres unmarked)	17.4
O=C(Nc1ccc2c(c1)OCCO2)c1coc2ccccc2c1=O	-0.238
CNCCCOc1ccc2c(c1)CCC2.O=C(O)C(=O)O	0.363
COC(=O)C1(O)CC(C(C)C)=NN1C(=O)c1ccccc1 (centres unmarked)	26.8
CCOC(=O)c1[nH]c2cc(OC)c(OC)cc2c1NC(=O)c1ccc2c(c1)OCO2	-4.45
COC(=O)c1c(C)nn(-c2ccccc2)c1N	10.7
Cc1nnc(NC(=O)c2sc3ccccc3c2Cl)s1	-2.23
CC(C)(C)OC(=O)N1CCC[C@H]1C(=O)O	6.78
Cc1ccc(Sc2ncccc2C(=O)O)cc1C	22.2
CCOc1ccc(S(=O)(=O)N2CCN(C(=O)CN3C(=O)NC4(CCCC4)C3=O)CC2)cc1	-14.1
CCN1CCCC1CNC(=O)c1cc2c(C)nc3ccccc3c2o1 (centres unmarked)	-12
Cc1ccc(S(=O)(=O)N2CCC(C(=O)Nc3nnc(-c4ccc(F)cc4)s3)CC2)cc1	-0.696
Cc1ccc(CNC(=O)c2ccc3c(=O)c(O)c(-c4ccc(C)cc4)[nH]c3c2)cc1	17.4
COc1ccc(-c2nc3ccccc3c(=O)n2CCOc2cc(C)ccc2C)cc1	26.6
O=C(CSc1ccccc1)Nc1cccc(NC(=O)c2ccco2)c1	-17.8
O=C(O)C(Cc1cnc[nH]1)NS(=O)(=O)c1ccc(Br)cc1 (centres unmarked)	2.95
C=CC[n+]1c(C)csc1Nc1cccc(Br)c1.[Br-]	-6.64

SMILES	hERG current change (%, negative = inhibition) at 10uM [%]
Cn1cccc1C(=O)OCC(=O)NC(=O)NC1CCCCC1	11.8
CCOC(=O)c1sc2c(c1C)C(c1cccs1)C1=C(CCCC1=O)N2 (centres unmarked)	8.89
O=C(NCc1csc(-c2cccs2)n1)C1CC1	14.5
CCc1cc2c(=O)n(CCCOC)c(SCC(=O)Nc3oc(C)c4c(C)n[nH]c(=O)c34)nc2s1	-1.43
FC(F)(F)c1ccc(-c2csc(-c3ccno3)n2)cc1	1.72
C/C(Cn1nnc([N+](=O)[O-])n1)=N\NC(=O)c1ccc(O)cc1	17.8
CC(C)(C)n1nnnc1C(c1ccc(C(F)(F)F)cc1)N(Cc1ccccc1)Cc1ccco1 (centres unmarked)	2.52
Clc1ccc(-c2csc(=Nc3cccnc3)n2CCCn2ccnc2)cc1Cl	-67.3
Cc1cc(=O)[nH]c(S)c1C#N	8.46
COCCn1c(SCC(=O)Nc2ccccc2OC)nnc1-c1ccco1	-13.6
C=CCNC(=O)/C(C#N)=C\c1cc(Cl)c(O)c(OCC)c1	-0.608
CC(C)(C)c1ccc(S(=O)(=O)N2CCC(O)(c3ccc(Cl)cc3)CC2)cc1	8.47
CN(CCOc1ccccc1)C(=O)c1ccc2c(c1)OCO2	-13.8
Cc1onc(-c2ccccc2)c1C(=O)NC(=S)Nc1sc2c(c1C#N)CCC(C)C2 (centres unmarked)	13.1
CCOC(=O)c1c(NC(=O)c2ccc(N3C(=O)C4C5C=CC(C5)C4C3=O)cc2)sc2c1CCCC2 (centres unmarked)	15.2
CCOc1ccc(NC(=S)N2CCC(C(O)(c3ccccc3)c3ccccc3)CC2)cc1	-13
O=C(O)c1ccc(O)c(O)c1	14.7
N#CC1=C(N)N(c2ccc(Cl)c(Cl)c2)C(=O)C1	12.8
COc1ccc(CCCc2nnc(SCC(=O)Nc3cccc(C)c3)o2)cc1	-4.58
CCOc1ccc2c(c1)c1nc3ccccc3nc1n2C	13.8
CCCCN(CC)Cc1c(C)[nH]c2ccccc2c1=O	-20.7
O=C(C1=NN[C@@H]2C(=O)N(c3cccc(C(F)(F)F)c3)C(=O)[C@H]12)c1ccc2ccccc2n1	-17.6
NNC(=O)COc1ncn(-c2ccccc2)n1	18

SMILES	hERG current change (%, negative = inhibition) at 10uM [%]
CCCCCCn1c(=O)c(C(=O)Nc2nnc(C)s2)c(O)c2ccccc21	-1.74
CCN(CC(=O)NCc1cccs1)c1nnnn1-c1ccccc1	-3.68
O=c1c2c3c(sc2nc2sc(C4CC4)nn12)CCCC3	-3.58
CC(C)Cn1c(SCC(=O)NC(=O)NC2CCCC2)nc2ccccc21	-8.51
O=C(NCc1ccc2c(c1)OCO2)c1cc(-c2ccccn2)nc2ccccc12	4.41
CCN(CC)CCn1c(=S)[nH]c2cc(C(=O)NCc3ccc(C)cc3)ccc2c1=O	-57.9
CSc1ccc(S(=O)(=O)N2CCC(C(=O)Nc3ccccc3C(F)(F)F)CC2)cc1	7.69
Cc1cccc(NC(=O)/C(C#N)=C\c2cc(C)n(-c3ccc(C(=O)O)cc3)c2C)c1	17.1
Cc1cc(C)cc(NC(=O)Nc2ccc(NC(=O)c3ccccc3O)cc2)c1	5.33
C=CCOC(=O)C1=C(C)NC(SCC(=O)N(CC)CC)=C(C#N)C1c1ccccc1 (centres unmarked)	-21.9
CC(C)(C)NC(=O)CSc1nnc(C2CC2)n1Cc1ccccc1	8.86
O=c1oc2ccccc2c2c1ncn2-c1ccccc1	-11.8
CCOc1ccccc1NC(=S)NC1CC2CCC1C2 (centres unmarked)	11.7
O=C(COC(=O)c1nc(Cl)ccc1Cl)c1ccc[nH]1	10.3
CC1CCN(c2cc(N3CCOCC3)c(F)cc2[N+](=O)[O-])CC1	-2.53
Cc1ccc(C)c(-n2cc(-c3ccc(Cl)cc3)nc2SCC(=O)NC2CCS(=O)(=O)C2)c1 (centres unmarked)	-12.2
O=S(=O)(Nc1ccc(Cl)cc1)c1ccc2c(c1)CCO2	-3.21
O=C(O)Cc1ccc2c(c1)N(S(=O)(=O)c1cccc(C(F)(F)F)c1)CC(C(=O)O)O2 (centres unmarked)	13.2
Br.Cn1c(=N)n(CC(=O)c2ccc(Br)s2)c2ccccc21	-6.86
O=C(CSc1ncnc2c1oc1ccccc12)N1CCCc2ccccc21	-4.36
C=CCNC(=O)c1cc(Cl)ccc1Cl	5.76
N#C/C(C(=O)N1CCCC1)=C1/N=C(N)c2ccccc21	17.2
COc1cccc(NC(=O)CN(C)C(=O)c2ccc(OCc3ccccc3)c(OC)c2)c1	-19.7

SMILES	hERG current change (%, negative = inhibition) at 10uM [%]
Nc1nc2nc(-c3ccccc3)cc(C(F)(F)F)c2s1	0.183
Cc1ccc2c(c1)/C(=N/O)CCS2	-4.75
COC(=O)NNC(=O)C(C)Oc1ccc(Cl)cc1Cl (centres unmarked)	-30.7
CCCC(C)C(=O)Nc1ccc(Cl)cc1Cl (centres unmarked)	-12.8
CCCCCCn1c(SCCN2CCOCC2)nc2c1c(=O)[nH]c(=O)n2C	-74.6
CCOc1ccc(S(=O)(=O)N2CCC(C(=O)NCc3cccnc3)CC2)cc1	-27.1
Cc1cc(C)n(-c2nnc3c4ccccc4n(C)c3n2)n1	-7.94
O=S1(=O)CCN2C(c3ccco3)=CSC2=N1	0.936
O=[N+]([O-])c1cc2c(cc1CN1CCN(c3ccccc3F)CC1)OCO2	4.24
CCOC(=O)C1=C(C)Nc2nc3ccccc3n2C1c1cccs1 (centres unmarked)	6.66
CN(Cc1cccs1)C(=O)CCCc1c[nH]c2ccccc12	-1.49
CCCN(Cc1cc2ccc(C)cc2[nH]c1=O)C(=O)c1ccccn1	-13.3
CC(C)c1nnc(NC(=O)CCC(=O)NCc2cccs2)s1	14.1
Cc1ccc(Oc2ncc(-c3ccc(Cl)cc3)cn2)cc1	9.42
Cc1nn(Cc2ccccc2)c(C)c1C(=O)O	-19.1
Cc1c(NC(=O)OCc2ccccc2)c(=O)n(-c2ccccc2)n1C	4.01
COc1ccc2c3c(cccc13)C(=O)CC2	9.97
CCc1ccc(C(=O)COC(=O)C2CCN(c3ccc(C(F)(F)F)cn3)CC2)cc1	-18
COc1ccc(Cc2n[nH]c(=S)n2NC(=O)Nc2ccc(C)cc2)cc1	8.9
CCC/C(O)=C1\C(=O)CC(C)(C)CC1=NCc1ccccc1	-21
COc1ccc(C(=O)NCCSCc2ccc(C)cc2)cc1	2.63
O=S(=O)(c1ccccc1)N1CN2CCN(C2)C1	14.7
O=C(CCN1CCN(c2ccccc2)CC1)Nc1ccccc1F	8.14
